# Measured values published in the supplement of paper PMC8728848.
# The other results are listed elsewhere or left out.
# What was measured:
# Experiment in all cases: glycan array binding signal (z-score within array); higher = stronger binding
# Conditions in all cases: glycan notation: IUPAC condensed, linker removed
# Neu5Ac(a2-8)Neu5Ac = molecular target: Neu5Ac(a2-8)Neu5Ac
# Outline: (§1)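 Glycan array data were curated from 3228 arrays in the Consortium for Functional Glycomics database and kept only where the protein sequence was available. Glycan names were converted to IUPAC-condensed notation, and columns mapping to the same glycan were averaged. The binding signal is a within-array Z-score, averaged across arrays of the same protein sequence at different concentrations or buffers and across linkers. Negative Z-scores can be read as non-binding.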
# [1] = molecular target: Neu5Ac(a2-8)Neu5Ac(a2-3)Gal(b1-3)GalNAc(b1-4)[Neu5Ac(a2-3)]Gal(b1-4)Glc
# Outline: as §1
# [2] = molecular target: Neu5Ac(a2-8)Neu5Ac(a2-3)Gal(b1-3)GalNAc(b1-4)[Neu5Ac(a2-8)Neu5Ac(a2-3)]Gal(b1-4)Glc
# Outline: as §1
# [3] = molecular target: Neu5Ac(a2-8)Neu5Ac(a2-3)Gal(b1-4)Glc
# Outline: as §1
# [4] = molecular target: Neu5Ac(a2-8)Neu5Ac(a2-3)Gal(b1-4)GlcNAc
# Outline: as §1
# [5] = molecular target: Neu5Ac(a2-8)Neu5Ac(a2-3)[Gal(b1-3)GalNAc(b1-4)]Gal(b1-4)Glc
# Outline: as §1
# [6] = molecular target: Neu5Ac(a2-8)Neu5Ac(a2-3)[GalNAc(b1-4)]Gal(b1-4)Glc
# Outline: as §1
# [7] = molecular target: Neu5Ac(a2-8)Neu5Ac(a2-8)Neu5Ac
# Outline: as §1
# [8] = molecular target: Neu5Ac(a2-8)Neu5Ac(a2-8)Neu5Ac(a2-3)Gal(b1-4)Glc
# Outline: as §1
# [9] = molecular target: Neu5Ac(a2-8)Neu5Ac(a2-8)Neu5Ac(a2-3)[Gal(b1-3)GalNAc(b1-4)]Gal(b1-4)Glc
# Outline: as §1
# [10] = molecular target: Neu5Ac(a2-8)Neu5Ac(a2-8)Neu5Ac(a2-3)[GalNAc(b1-4)]Gal(b1-4)Glc
# Outline: as §1
# [11] = molecular target: Neu5Ac(a2-8)Neu5Ac(a2-8)Neu5Ac(a2-8)Neu5Ac(a2-3)[GalNAc(b1-4)]Gal(b1-4)Glc
# Outline: as §1
# [12] = molecular target: Neu5Ac(a2-8)Neu5Gc(a2-3)Gal(b1-4)GlcNAc
# Outline: as §1
# [13] = molecular target: Neu5Ac(b2-6)Gal(b1-4)GlcNAc
# Outline: as §1
# Neu5Ac(b2-6)GalNAc = molecular target: Neu5Ac(b2-6)GalNAc
# Outline: as §1
# [14] = molecular target: Neu5Ac9Ac(a2-3)Gal(b1-3)GlcNAc
# Outline: as §1
# [15] = molecular target: Neu5Ac9Ac(a2-3)Gal(b1-4)GlcNAc
# Outline: as §1
# [16] = molecular target: Neu5Ac9Ac(a2-6)Gal(b1-4)GlcNAc
# Outline: as §1
# [17] = molecular target: Neu5Gc(a2-3)Gal(b1-3)GlcNAc
# Outline: as §1
# [18] = molecular target: Neu5Gc(a2-3)Gal(b1-3)[Fuc(a1-4)]GlcNAc
# Outline: as §1
# Neu5Gc(a2-3)Gal(b1-4)Glc = molecular target: Neu5Gc(a2-3)Gal(b1-4)Glc
# Outline: as §1
# [19] = molecular target: Neu5Gc(a2-3)Gal(b1-4)GlcNAc
# Outline: as §1
# [20] = molecular target: Neu5Gc(a2-3)Gal(b1-4)GlcNAc(b1-3)Gal(b1-4)GlcNAc(b1-2)Man(a1-3)[Neu5Gc(a2-3)Gal(b1-4)GlcNAc(b1-3)Gal(b1-4)GlcNAc(b1-2)Man(a1-6)]Man(b1-4)GlcNAc(b1-4)GlcNAc
# Outline: as §1
# [21] = molecular target: Neu5Gc(a2-3)Gal(b1-4)[Fuc(a1-3)]GlcNAc
# Outline: as §1
# [22] = molecular target: Neu5Gc(a2-6)Gal(b1-4)GlcNAc
# Outline: as §1
# Neu5Gc(a2-6)GalNAc = molecular target: Neu5Gc(a2-6)GalNAc
# Outline: as §1
# [23] = molecular target: Neu5Gc(a2-8)Neu5Ac(a2-3)Gal(b1-4)GlcNAc
# Outline: as §1
# [24] = molecular target: Neu5Gc(a2-8)Neu5Gc(a2-3)Gal(b1-4)GlcNAc
# Outline: as §1
# [25] = molecular target: Neu5Gc(a2-8)Neu5Gc(a2-3)Gal(b1-4)GlcNAc(b1-3)Gal(b1-4)GlcNAc
# Outline: as §1
# [26] = molecular target: Neu5Gc(a2-8)Neu5Gc(a2-6)Gal(b1-4)GlcNAc
# Outline: as §1
# [27] = molecular target: Neu5Gc(b2-6)Gal(b1-4)GlcNAc
# Outline: as §1
binder,measurement,setting,value
FimA-N3 (Actinomyces oris) (protein) MHHHHHHSSGVDLGTENLYFQSNAGLQGAQFQLYKAKNAYANTCSNEKEGAPIAINGQTTLTTDAQGAIDIKGLFISDSIDGADRDNQVNAMERCYVLVETKAPAGYVLPAGNGAATPVKVKAGEETTDN,glycan array binding signal (z-score),Neu5Ac(a2-8)Neu5Ac,-0.246
same,glycan array binding signal (z-score),[1],-0.39
same,glycan array binding signal (z-score),[2],-0.142
same,glycan array binding signal (z-score),[3],-0.606
same,glycan array binding signal (z-score),[4],-0.444
same,glycan array binding signal (z-score),[5],-0.46
same,glycan array binding signal (z-score),[6],-0.272
same,glycan array binding signal (z-score),[7],-0.564
same,glycan array binding signal (z-score),[8],1.78
same,glycan array binding signal (z-score),[9],-0.224
same,glycan array binding signal (z-score),[10],-0.132
same,glycan array binding signal (z-score),[11],0.506
same,glycan array binding signal (z-score),[12],-0.448
same,glycan array binding signal (z-score),[13],-0.299
same,glycan array binding signal (z-score),Neu5Ac(b2-6)GalNAc,-0.344
same,glycan array binding signal (z-score),[14],0.189
same,glycan array binding signal (z-score),[15],-0.758
same,glycan array binding signal (z-score),[16],-0.706
same,glycan array binding signal (z-score),[17],-0.37
same,glycan array binding signal (z-score),[18],-0.336
same,glycan array binding signal (z-score),Neu5Gc(a2-3)Gal(b1-4)Glc,-0.378
same,glycan array binding signal (z-score),[19],0.031
same,glycan array binding signal (z-score),[20],0.801
same,glycan array binding signal (z-score),[21],-0.363
same,glycan array binding signal (z-score),[22],-0.544
same,glycan array binding signal (z-score),Neu5Gc(a2-6)GalNAc,-0.145
same,glycan array binding signal (z-score),[23],-0.164
same,glycan array binding signal (z-score),[24],-0.385
same,glycan array binding signal (z-score),[25],0.032
same,glycan array binding signal (z-score),[26],-0.391
same,glycan array binding signal (z-score),[27],-0.15
